At least one compound was matched to its structure with a doubt left.
Tests used:
[1] = target: FGFR3 (SEQ ID NO: 5, amino acids 449-759) (Homo sapiens (Human), UniProt P22607); experiment: LC/MS FGFR3 kobs assay (covalent protein modification); assay type: binding; conditions: 500 nM FGFR3, 3 μM compound
Description: (§1) The LC/MS FGFR1 and FGFR3 kobs assays were conducted as follows. […] At each time point, the reaction was quenched with 20 μL of 0.4% formic acid. The extent of protein modification by each compound was determined by LC/MS on an Agilent Technologies 6520 Q-TOF LC/MS. Protein signals were then automatically deconvoluted using Agilent Masshunter software. Deconvoluted mass signals were exported to Tibco Spotfire data analysis program for further processing and normalization.
(§2) Data analysis included five steps. First, the signals for the “DMSO Controls” were analyzed to determine the percent of signal associated with unmodified FGFR1 or FGFR3 at each time point. Next, the percent of the signal associated with the covalent modification was determined. Third, the average nonmodified “DMSO Control” signal was used to normalize the modified protein signals at each time point. The percent of unmodified protein was fit to an exponential decay model where A0 is the Percent Unmodified at the start of the reaction, and kobs is the observed rate constant over the time period.
Table EC contains kobs values for compounds tested in these assays, presented as the average of multiple determinations if multiple determinations were made. ND=not determined.

[2] = target: FGFR1 (SEQ ID NO: 1, amino acids 458-765) (Homo sapiens (Human), UniProt P11362); experiment: LC/MS FGFR1 kobs assay (covalent protein modification); assay type: binding; conditions: 500 nM FGFR1, 3 μM compound
Description: as §1, §2

Chain of FGFR3 (SEQ ID NO: 5, amino acids 449-759) (P22607 449-759): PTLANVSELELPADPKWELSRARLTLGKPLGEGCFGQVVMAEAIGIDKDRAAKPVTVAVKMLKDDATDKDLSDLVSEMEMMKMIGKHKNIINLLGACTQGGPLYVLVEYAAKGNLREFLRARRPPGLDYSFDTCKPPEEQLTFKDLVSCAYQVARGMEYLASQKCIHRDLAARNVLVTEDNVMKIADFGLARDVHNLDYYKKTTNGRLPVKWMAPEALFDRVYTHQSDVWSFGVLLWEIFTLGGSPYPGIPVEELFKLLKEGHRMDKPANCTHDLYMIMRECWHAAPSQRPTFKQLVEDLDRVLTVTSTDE
Chain of FGFR1 (SEQ ID NO: 1, amino acids 458-765) (P11362 458-765): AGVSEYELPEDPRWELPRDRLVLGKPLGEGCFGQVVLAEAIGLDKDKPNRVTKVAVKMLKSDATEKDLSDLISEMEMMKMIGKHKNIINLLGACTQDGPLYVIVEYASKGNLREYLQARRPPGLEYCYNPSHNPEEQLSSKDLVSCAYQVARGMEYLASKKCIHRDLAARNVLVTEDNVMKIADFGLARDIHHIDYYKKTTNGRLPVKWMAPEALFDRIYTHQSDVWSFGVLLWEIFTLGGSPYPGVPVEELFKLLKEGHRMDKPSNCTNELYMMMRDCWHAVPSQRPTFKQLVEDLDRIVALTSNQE

Structure (SMILES)	FGFR3 Enz kobs [1] [min⁻¹]	FGFR1 Enz kobs [2] [min⁻¹]
C=CS(=O)(=O)N[C@H]1C[C@@H](C(=O)N2CCC(n3cc(-c4cc(OC)c5c(C#N)cnn5c4)cn3)CC2)C1 [Example 193, N-((1s,3s)-3-(4-(4-(3-cyano-4-methoxypyrazolo[1,5-a]pyridin-6-yl)-1H-pyrazol-1-yl)piperidine-1-carbonyl)cyclobutyl) ethenesulfonamide]	0.02874	0.00275
C=CC(=O)N[C@H]1CCC[C@@H](C(=O)N2CCC(n3cc(-c4cc(OC)c5c(C#N)cnn5c4)cn3)CC2)C1 [Example 19, N-((1S,3R)-3-(4-(4-(3-cyano-4-methoxypyrazolo[1,5-a]pyridin-6-yl)-1H-pyrazol-1-yl)piperidine-1-carbonyl)cyclohexyl)acryl-amide]	0.00045	
C=CC(=O)Nc1ccc(S(=O)(=O)N2CCC(n3cc(-c4cc(OC)c5c(C#N)cnn5c4)cn3)CC2)cc1 [Example 49, N-(4-((4-(4-(3-cyano-4-methoxypyrazolo[1,5-a]pyridin-6-yl)-1H-pyrazol-1-yl)piperidin-1-yl)sulfonyl)phenyl)acryl-amide (2,2,2-trifluoroacetate)]	0.01768	0.00143
C=CS(=O)(=O)N[C@H]1C[C@H](C(=O)N2CCC(n3cc(-c4cc(OC)c5c(C#N)cnn5c4)cn3)CC2)C1 [Example 194, N-((1r,3r)-3-(4-(4-(3-cyano-4-methoxypyrazolo[1,5-a]pyridin-6-yl)-1H-pyrazol-1-yl)piperidine-1-carbonyl)cyclobutyl) ethenesulfonamide]	0.03375	0.00596
C=CS(=O)(=O)Nc1ccc(C(=O)N2CCC(n3cc(-c4cc(OC)c5c(C#N)cnn5c4)cn3)CC2)cc1 [Example 196, N-(4-(4-(4-(3-cyano-4-methoxypyrazolo[1,5-a]pyridin-6-yl)-1H-pyrazol-1-yl)piperidine-1-carbonyl)phenyl)ethenesulfonamide]	0.1426	
COc1cc(-c2cnn(C3CN(CC4CN(C(=O)/C=C/CN(C)C)C4)C3)c2)cn2ncc(C#N)c12 [Example 148]	0.00827	0.00184
C=CS(=O)(=O)N[C@H]1CC[C@H](C(=O)N2CCC(n3cc(-c4cc(OC)c5c(C#N)cnn5c4)cn3)CC2)CC1 [Example 187, N-((1r,4r)-4-(4-(4-(3-cyano-4-methoxypyrazolo[1,5-a]pyridin-6-yl)-1H-pyrazol-1-yl)piperidine-1-carbonyl)cyclohexyl) ethenesulfonamide]	0.01828	0.00383
COc1cc(-c2cnn(C3CCN(C(=O)C4CN(C(=O)/C=C/CF)C4)CC3)c2)cn2ncc(C#N)c12 [Example 142]	0.00708	0.00091
C=CC(=O)N[C@H]1CC[C@@H](C(=O)N2CCC(n3cc(-c4cc(OC)c5c(C#N)cnn5c4)cn3)CC2)C1 [Example 33, N-((1S,3R)-3-(4-(4-(3-cyano-4-methoxypyrazolo[1,5-a]pyridin-6-yl)-1H-pyrazol-1-yl)piperidine-1-carbonyl)cyclopentyl)acryl-amide]	0.00053	
C=C(F)C(=O)N1CC(C(=O)N2CCC(n3cc(-c4cc(OC)c5c(C#N)cnn5c4)cn3)CC2)C1 [Example 140, 6-(1-(1-(1-(2-fluoroacryloyl)azet-idine-3-carbonyl)piperidin-4-yl)-1H-pyrazol-4-yl)-4-methoxypyrazolo [1,5-a]pyridine-3-carbonitrile]		0.00008
C=CC(=O)N[C@H]1CC[C@H](C(=O)N2CCC(n3cc(-c4cc(OC)c5c(C#N)cnn5c4)cn3)CC2)C1 [Example 35, N-((1S,3S)-3-(4-(4-(3-cyano-4-methoxypyrazolo[1,5-a]pyridin-6-yl)-1H-pyrazol-1-yl)piperidine-1-carbonyl)cyclopentyl)acryl-amide]	0.00043	
C=CC(=O)N[C@H]1CC[C@H](C(=O)N2CC(n3cc(-c4cc(OC)c5c(C#N)cnn5c4)cn3)C2)C1 [Example 77, N-((1S,3S)-3-(3-(4-(3-cyano-4-methoxypyrazolo[1,5-a]pyridin-6-yl)-1H-pyrazol-1-yl)azetidine-1-carbonyl)cyclopentyl)acryl-amide]	0.00028	
COc1cc(-c2cnn(C3CN(C(=O)C4CN(C(=O)/C=C/CN(C)C)C4)C3)c2)cn2ncc(C#N)c12 [Example 150]	0.02533	0.00266
COc1cc(-c2cnn(C3CCN(C(=O)/C=C/CN(C)C)CC3)c2)cn2ncc(C#N)c12 [Example 144, (E)-6-(1-(1-(4-(dimethylamino)benoyl)piperidin-4-yl)-1H-pyrazol-4-yl)-4-methoxypyrazol14 5o[1,5-a]pyridine-3-carbonitrile]	0.00271	
C=CC(=O)N[C@@H]1CC[C@@H](C(=O)N2CCC(n3cc(-c4cc(OC)c5c(C#N)cnn5c4)cn3)CC2)C1 [Example 34, N-((1R,3R)-3-(4-(4-(3-cyano-4-methoxypyrazolo[1,5-a]pyridin-6-yl)-1H-pyrazol-1-yl)piperidine-1-carbonyl)cyclopentyl)acryl-amide]	0.0004	
C=CC(=O)N[C@@H]1CC[C@H](C(=O)N2CCC(n3cc(-c4cc(OC)c5c(C#N)cnn5c4)cn3)CC2)C1 [Example 32, N-((1R,3S)-3-(4-(4-(3-cyano-4-methoxypyrazolo[1,5-a]pyridin-6-yl)-1H-pyrazol-1-yl)piperidine-1-carbonyl)cyclopentyl)acryl-amide]	0.00043	
